# Measurements as given in the supplement of paper PMC8728848.
# The list shows a part of the results.
# B1: Gal 8 (Mus musculus), Q9JL15 (protein)
# chain: MGGSHHHHHHGMASMLSLNNLQNIIYNPIIPYVGTITEQLKPGSLIVIRGHVPKDSERFQVDFQLGNSLKPRADVAFHFNPHFKRSSCIVCNTLTQEKWGWEEITYDMPFRKEKSFEIVFMVLKNKFQVAVNGRHVLLYAHRISPEQIDTVGIYGKVNIHSIGFRFSSASALPHTLGDLQSMETSALGLTQINRENIQKPGKLQLSLPFEARLNASMGPGRTVVIKGEVNTNARSFNVDLVAGKTRDIALHLNPHLNVKAFVRNSFLQDAWGEEERNITCFPFSSGMYFEMIIYCDVREFKVAINGVHSLEYKHRFKDLSSIDTLSVDGDIRLLDVRSW
# How the values were obtained:
# Test in all cases: glycan array binding signal (z-score within array); higher = stronger binding
# Details in all cases: glycan notation: IUPAC condensed, linker removed; mutation: R82H, R255H
# Neu5Ac(a2-6)Gal = biological target: Neu5Ac(a2-6)Gal
# Procedure, shortened: (§1)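 The binding signal is a Z-score computed within each array and averaged over linkers. Arrays of the same protein sequence at different concentrations or buffers were also averaged together. Data originate from 3228 arrays in the Consortium for Functional Glycomics database, kept only where the protein sequence was available.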
# [1] = biological target: Neu5Ac(a2-6)Gal(b1-3)GlcNAc(b1-3)[Gal(b1-4)GlcNAc(b1-6)]Gal(b1-4)Glc
# Procedure, shortened: as §1
# Neu5Ac(a2-6)Gal(b1-4)Glc = biological target: Neu5Ac(a2-6)Gal(b1-4)Glc
# Procedure, shortened: as §1
# [2] = biological target: Neu5Ac(a2-6)Gal(b1-4)GlcNAc
# Procedure, shortened: as §1
# [3] = biological target: Neu5Ac(a2-6)Gal(b1-4)GlcNAc(b1-2)Man
# Procedure, shortened: as §1
# [4] = biological target: Neu5Ac(a2-6)Gal(b1-4)GlcNAc(b1-2)Man(a1-3)Man(b1-4)GlcNAc(b1-4)GlcNAc
# Procedure, shortened: as §1
# [5] = biological target: Neu5Ac(a2-6)Gal(b1-4)GlcNAc(b1-2)Man(a1-3)[Gal(b1-4)GlcNAc(b1-2)Man(a1-6)]Man(b1-4)GlcNAc(b1-4)GlcNAc
# Procedure, shortened: as §1
# [6] = biological target: Neu5Ac(a2-6)Gal(b1-4)GlcNAc(b1-2)Man(a1-3)[GlcNAc(b1-2)Man(a1-6)]Man(b1-4)GlcNAc(b1-4)GlcNAc
# Procedure, shortened: as §1
# [7] = biological target: Neu5Ac(a2-6)Gal(b1-4)GlcNAc(b1-2)Man(a1-3)[GlcNAc(b1-4)][Neu5Ac(a2-6)Gal(b1-4)GlcNAc(b1-2)Man(a1-6)]Man(b1-4)GlcNAc(b1-4)GlcNAc
# Procedure, shortened: as §1
# [8] = biological target: Neu5Ac(a2-6)Gal(b1-4)GlcNAc(b1-2)Man(a1-3)[Man(a1-6)]Man(b1-4)GlcNAc(b1-4)GlcNAc
# Procedure, shortened: as §1
# [9] = biological target: Neu5Ac(a2-6)Gal(b1-4)GlcNAc(b1-2)Man(a1-3)[Neu5Ac(a2-3)Gal(b1-4)GlcNAc(b1-2)Man(a1-6)]Man(b1-4)GlcNAc(b1-4)GlcNAc
# Procedure, shortened: as §1
# [10] = biological target: Neu5Ac(a2-6)Gal(b1-4)GlcNAc(b1-2)Man(a1-3)[Neu5Ac(a2-6)Gal(b1-4)GlcNAc(b1-2)Man(a1-6)]Man(b1-4)GlcNAc(b1-4)GlcNAc
# Procedure, shortened: as §1
# [11] = biological target: Neu5Ac(a2-6)Gal(b1-4)GlcNAc(b1-2)Man(a1-3)[Neu5Ac(a2-6)Gal(b1-4)GlcNAc(b1-2)Man(a1-6)]Man(b1-4)GlcNAc(b1-4)[Fuc(a1-6)]GlcNAc
# Procedure, shortened: as §1
# [12] = biological target: Neu5Ac(a2-6)Gal(b1-4)GlcNAc(b1-2)Man(a1-6)Man(b1-4)GlcNAc(b1-4)GlcNAc
# Procedure, shortened: as §1
# [13] = biological target: Neu5Ac(a2-6)Gal(b1-4)GlcNAc(b1-2)Man(a1-6)[Gal(b1-4)GlcNAc(b1-2)Man(a1-3)]Man(b1-4)GlcNAc(b1-4)GlcNAc
# Procedure, shortened: as §1
# [14] = biological target: Neu5Ac(a2-6)Gal(b1-4)GlcNAc(b1-2)Man(a1-6)[GlcNAc(b1-2)Man(a1-3)]Man(b1-4)GlcNAc(b1-4)GlcNAc
# Procedure, shortened: as §1
# [15] = biological target: Neu5Ac(a2-6)Gal(b1-4)GlcNAc(b1-2)Man(a1-6)[Man(a1-3)]Man(b1-4)GlcNAc(b1-4)GlcNAc
# Procedure, shortened: as §1
# [16] = biological target: Neu5Ac(a2-6)Gal(b1-4)GlcNAc(b1-2)[Neu5Ac(a2-6)Gal(b1-4)GlcNAc(b1-4)]Man(a1-3)[GlcNAc(b1-4)][Neu5Ac(a2-6)Gal(b1-4)GlcNAc(b1-2)[Neu5Ac(a2-6)Gal(b1-4)GlcNAc(b1-6)]Man(a1-6)]Man(b1-4)GlcNAc(b1-4)GlcNAc
# Procedure, shortened: as §1
# [17] = biological target: Neu5Ac(a2-6)Gal(b1-4)GlcNAc(b1-2)[Neu5Ac(a2-6)Gal(b1-4)GlcNAc(b1-4)]Man(a1-3)[GlcNAc(b1-4)][Neu5Ac(a2-6)Gal(b1-4)GlcNAc(b1-4)Man(a1-6)]Man(b1-4)GlcNAc(b1-4)GlcNAc
# Procedure, shortened: as §1
# [18] = biological target: Neu5Ac(a2-6)Gal(b1-4)GlcNAc(b1-2)[Neu5Ac(a2-6)Gal(b1-4)GlcNAc(b1-6)]Man(a1-6)[Neu5Ac(a2-6)Gal(b1-4)GlcNAc(b1-2)Man(a1-3)][GlcNAc(b1-4)]Man(b1-4)GlcNAc(b1-4)GlcNAc
# Procedure, shortened: as §1
# [19] = biological target: Neu5Ac(a2-6)Gal(b1-4)GlcNAc(b1-3)Gal(b1-3)GlcNAc
# Procedure, shortened: as §1
# [20] = biological target: Neu5Ac(a2-6)Gal(b1-4)GlcNAc(b1-3)Gal(b1-4)GlcNAc
# Procedure, shortened: as §1
# [21] = biological target: Neu5Ac(a2-6)Gal(b1-4)GlcNAc(b1-3)Gal(b1-4)GlcNAc(b1-2)Man(a1-3)[Neu5Ac(a2-6)Gal(b1-4)GlcNAc(b1-3)Gal(b1-4)GlcNAc(b1-2)Man(a1-6)]GalNAc
# Procedure, shortened: as §1
# [22] = biological target: Neu5Ac(a2-6)Gal(b1-4)GlcNAc(b1-3)Gal(b1-4)GlcNAc(b1-3)Gal(b1-4)GlcNAc
# Procedure, shortened: as §1
# [23] = biological target: Neu5Ac(a2-6)Gal(b1-4)GlcNAc(b1-3)Gal(b1-4)GlcNAc(b1-3)Gal(b1-4)GlcNAc(b1-2)Man(a1-3)[Neu5Ac(a2-6)Gal(b1-4)GlcNAc(b1-3)Gal(b1-4)GlcNAc(b1-3)Gal(b1-4)GlcNAc(b1-2)Man(a1-6)]GalNAc
# Procedure, shortened: as §1
# [24] = biological target: Neu5Ac(a2-6)Gal(b1-4)GlcNAc(b1-3)Gal(b1-4)GlcNAc(b1-3)GalNAc
# Procedure, shortened: as §1
# [25] = biological target: Neu5Ac(a2-6)Gal(b1-4)GlcNAc(b1-3)Gal(b1-4)GlcNAc(b1-3)[Neu5Ac(a2-6)Gal(b1-4)GlcNAc(b1-3)Gal(b1-4)GlcNAc(b1-6)]GalNAc
# Procedure, shortened: as §1
# [26] = biological target: Neu5Ac(a2-6)Gal(b1-4)GlcNAc(b1-3)Gal(b1-4)GlcNAc(b1-6)[Gal(b1-3)]GalNAc
# Procedure, shortened: as §1
# [27] = biological target: Neu5Ac(a2-6)Gal(b1-4)GlcNAc(b1-3)Gal(b1-4)[Fuc(a1-3)]GlcNAc(b1-3)Gal(b1-4)[Fuc(a1-3)]GlcNAc
# Procedure, shortened: as §1
# [28] = biological target: Neu5Ac(a2-6)Gal(b1-4)GlcNAc(b1-3)GalNAc
# Procedure, shortened: as §1
# [29] = biological target: Neu5Ac(a2-6)Gal(b1-4)GlcNAc(b1-3)[Neu5Ac(a2-6)Gal(b1-4)GlcNAc(b1-6)]GalNAc
# Procedure, shortened: as §1
# [30] = biological target: Neu5Ac(a2-6)Gal(b1-4)GlcNAc(b1-6)GalNAc
# Procedure, shortened: as §1
# [31] = biological target: Neu5Ac(a2-6)Gal(b1-4)GlcNAc(b1-6)[Gal(b1-3)GlcNAc(b1-3)]Gal(b1-4)Glc
# Procedure, shortened: as §1
# [32] = biological target: Neu5Ac(a2-6)Gal(b1-4)GlcNAc(b1-6)[Gal(b1-3)]GalNAc
# Procedure, shortened: as §1
# [33] = biological target: Neu5Ac(a2-6)Gal(b1-4)GlcNAc6S
# Procedure, shortened: as §1
# Neu5Ac(a2-6)GalNAc = biological target: Neu5Ac(a2-6)GalNAc
# Procedure, shortened: as §1
# [34] = biological target: Neu5Ac(a2-6)GalNAc(b1-4)GlcNAc
# Procedure, shortened: as §1
# [35] = biological target: Neu5Ac(a2-6)GalNAc(b1-4)GlcNAc6S
# Procedure, shortened: as §1
binder,measurement,setting,value
B1,glycan array binding signal (z-score),Neu5Ac(a2-6)Gal,-0.209
same,glycan array binding signal (z-score),[1],-0.267
same,glycan array binding signal (z-score),Neu5Ac(a2-6)Gal(b1-4)Glc,-0.227
same,glycan array binding signal (z-score),[2],-0.267
same,glycan array binding signal (z-score),[3],-0.207
same,glycan array binding signal (z-score),[4],-0.244
same,glycan array binding signal (z-score),[5],-0.272
same,glycan array binding signal (z-score),[6],-0.271
same,glycan array binding signal (z-score),[7],-0.267
same,glycan array binding signal (z-score),[8],-0.269
same,glycan array binding signal (z-score),[9],-0.269
same,glycan array binding signal (z-score),[10],-0.187
same,glycan array binding signal (z-score),[11],-0.251
same,glycan array binding signal (z-score),[12],-0.2
same,glycan array binding signal (z-score),[13],-0.264
same,glycan array binding signal (z-score),[14],-0.199
same,glycan array binding signal (z-score),[15],-0.265
same,glycan array binding signal (z-score),[16],-0.257
same,glycan array binding signal (z-score),[17],-0.236
same,glycan array binding signal (z-score),[18],-0.274
same,glycan array binding signal (z-score),[19],-0.165
same,glycan array binding signal (z-score),[20],-0.267
same,glycan array binding signal (z-score),[21],-0.102
same,glycan array binding signal (z-score),[22],-0.273
same,glycan array binding signal (z-score),[23],0.365
same,glycan array binding signal (z-score),[24],-0.253
same,glycan array binding signal (z-score),[25],-0.217
same,glycan array binding signal (z-score),[26],-0.258
same,glycan array binding signal (z-score),[27],-0.258
same,glycan array binding signal (z-score),[28],-0.062
same,glycan array binding signal (z-score),[29],-0.265
same,glycan array binding signal (z-score),[30],-0.126
same,glycan array binding signal (z-score),[31],-0.307
same,glycan array binding signal (z-score),[32],-0.257
same,glycan array binding signal (z-score),[33],-0.2
same,glycan array binding signal (z-score),Neu5Ac(a2-6)GalNAc,-0.271
same,glycan array binding signal (z-score),[34],-0.285
same,glycan array binding signal (z-score),[35],1.18
